Here are results for 44 compounds from publication PMC4336329 (PLoS ONE, 2015).

In all, about 310,000 compounds went through this assay and about 14,000 (4.5%) showed an effect of 50% or more. The effect is printed as a negative number. Some of the results follow.
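Further: peak tail current of the secondary pulse compared with the same well before compound.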

In the assay the target is human ether-à-go-go-related gene (hERG) potassium channel (human, UniProt Q12809). Briefly: primary screen, population patch clamp on CHO cells stably expressing hERG.
Chain of human ether-à-go-go-related gene (hERG) potassium channel (Q12809 whole entry, looked up): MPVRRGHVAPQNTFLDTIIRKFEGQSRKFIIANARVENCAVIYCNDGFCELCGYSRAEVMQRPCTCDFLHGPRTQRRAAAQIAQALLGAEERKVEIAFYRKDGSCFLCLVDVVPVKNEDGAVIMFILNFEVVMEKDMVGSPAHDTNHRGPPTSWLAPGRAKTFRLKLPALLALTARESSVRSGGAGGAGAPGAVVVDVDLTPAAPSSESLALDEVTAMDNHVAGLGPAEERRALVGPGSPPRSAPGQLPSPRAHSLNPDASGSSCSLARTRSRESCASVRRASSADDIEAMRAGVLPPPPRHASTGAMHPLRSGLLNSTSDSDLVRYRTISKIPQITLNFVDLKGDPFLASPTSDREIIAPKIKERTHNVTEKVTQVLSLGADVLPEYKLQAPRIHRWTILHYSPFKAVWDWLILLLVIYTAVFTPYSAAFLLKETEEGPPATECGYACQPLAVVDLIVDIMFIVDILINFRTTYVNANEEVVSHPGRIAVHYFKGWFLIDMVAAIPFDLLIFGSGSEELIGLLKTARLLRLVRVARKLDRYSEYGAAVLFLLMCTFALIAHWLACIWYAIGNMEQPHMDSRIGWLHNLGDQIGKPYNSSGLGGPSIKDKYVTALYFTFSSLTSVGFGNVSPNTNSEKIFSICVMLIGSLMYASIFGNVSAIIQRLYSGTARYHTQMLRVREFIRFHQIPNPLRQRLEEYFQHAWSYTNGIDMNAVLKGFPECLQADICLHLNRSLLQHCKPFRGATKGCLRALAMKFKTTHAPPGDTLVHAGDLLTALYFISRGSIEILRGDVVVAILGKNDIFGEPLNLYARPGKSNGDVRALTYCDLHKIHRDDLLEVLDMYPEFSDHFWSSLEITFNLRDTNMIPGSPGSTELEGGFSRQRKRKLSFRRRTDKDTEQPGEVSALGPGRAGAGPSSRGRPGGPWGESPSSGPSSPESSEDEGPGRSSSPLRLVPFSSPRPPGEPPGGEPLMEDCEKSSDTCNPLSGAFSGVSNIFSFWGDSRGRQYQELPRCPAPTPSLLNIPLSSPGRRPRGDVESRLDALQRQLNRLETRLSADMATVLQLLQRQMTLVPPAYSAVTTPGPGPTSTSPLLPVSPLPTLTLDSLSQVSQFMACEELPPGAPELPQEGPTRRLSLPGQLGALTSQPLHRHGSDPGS
With `COc1ccc(CNC(=O)c2noc3c2CCCC3)cc1`, the “hERG current change (%, negative = inhibition) at 10uM” value is -3.49%.
As for `NCCCNC(=O)c1ccc(/C=N/O)nc1`, the “hERG current change (%, negative = inhibition) at 10uM” value turned out to be 15.7%.
The figure for `COc1ccc(NC(=O)c2cccnc2)cc1OCC(C)C` is 0.662%; for `COc1ccc2oc(=N)c(-c3nnc4n3CCCCC4)cc2c1` it is 4%.
The figure for `C=C(C)COc1ccc(C2NC(=O)c3ccccc3O2)cc1OCC` (centres unmarked) is 14.7%; for `CCC(C)NCC(=O)Nc1ccc(S(N)(=O)=O)cc1` (centres unmarked) it is 26.7%.
Turning to `O=C1CCN(C(=O)c2cccs2)c2ccccc21`, the “hERG current change (%, negative = inhibition) at 10uM” value was -3.14%.
The figure for `CCN(C(=O)COC(=O)/C=C/c1cccc(Br)c1)C1CCS(=O)(=O)C1` (centres unmarked) is -17.2%; for `O=C1NC(=Nc2ccc(Cl)cc2)SC1Cc1cc(Cl)ccc1Cl` (centres unmarked) it is 29.7%; for `CCOC(=O)Cc1csc(NC(=O)C2CCCCC2C(=O)O)n1` (centres unmarked) it is 2.05%.
The figure for `COC(=O)c1ccccc1NC(=S)NC(=O)c1ccc2c(c1)OCO2` is 32.6%.
Under `COC(=O)c1scc(S(=O)(=O)C(C)C)c1N/N=C(\C#N)C(=O)c1ccc(Cl)cc1` stands 24.2%; under `O=C(Nc1ccc(Cl)c(Cl)c1)O/N=C/c1ccncc1`, 11.2%; under `Cc1ccc(C)c(N2CCN(C(=O)CN(C)S(=O)(=O)c3cnc[nH]3)CC2)c1`, 4.13%.
On to `O=C1CCc2cc(NS(=O)(=O)c3cc(F)ccc3F)cc3c2N1CC3`, for which the “hERG current change (%, negative = inhibition) at 10uM” value is -1.07%.
The figure for `CCC(C)N(C(=O)COC(=O)CNC(=O)c1sc2ccccc2c1Cl)C1CCS(=O)(=O)C1` (centres unmarked) is 3.2%; for `O=C(CN1C(=O)c2cccc3cccc1c23)N1CCN(c2ccc(F)cc2)CC1` it is 9.69%; for `COc1ccc(C(=O)NC(=S)NNC(=O)c2c(-c3ccccc3)noc2C)cc1` it is 17%.
Under `Cc1ccc(S(=O)(=O)N(c2cccc(C(F)(F)F)c2)C2C=CS(=O)(=O)C2)cc1` (centres unmarked) stands 6.3%; under `COC(=O)Nc1ccc(SCC(=O)c2ccc(Cl)cc2)cc1`, 21.5%; under `CCCn1c(C2CC(=O)N(c3cc(OC)ccc3OC)C2)nc2ccccc21` (centres unmarked), -18.3%.
With `Cc1ccc(-n2c(N)cc(=O)nc2SCC(=O)N2CCN(c3ccccc3)CC2)cc1C`, the “hERG current change (%, negative = inhibition) at 10uM” value was 12.7%.
Take `CC(=O)Nc1ccc(S(=O)(=O)N2CCN(c3cc(C(F)(F)F)ccn3)CC2)cc1`: the “hERG current change (%, negative = inhibition) at 10uM” value is -7.64%.
The figure for `COc1ccc(/C(O)=C2/C(=O)C(=O)N(CCN(C)C)C2c2cccnc2)cc1OC` (centres unmarked) is -8.56%; for `Cn1c(-c2ccccc2)c(C=O)c2ccccc21` it is -2.25%; for `COc1ccc2c(c1)[C@@]13CCC=C[C@H]1[C@@H](C2)NCC3.Cl` it is 4.36%.
Regarding `NS(=O)(=O)c1ccc(CCNCC(=O)NC2CC2)cc1`, the “hERG current change (%, negative = inhibition) at 10uM” value is reported as -64.1%.
On to `Cc1ccc(S(=O)(=O)N2CCOCC2)cc1NC(=O)COC(=O)CCC(=O)c1cccs1`, for which the “hERG current change (%, negative = inhibition) at 10uM” value is reported as -13.8%.
Take `O=C(O)CCC1(C(=O)O)OCCc2ccccc21` (centres unmarked): the “hERG current change (%, negative = inhibition) at 10uM” value came out at 0.642%.
On to `O=C(Nc1ccnn1C1CCN(C/C=C/c2ccccc2)CC1)C1CCCC1`, for which the “hERG current change (%, negative = inhibition) at 10uM” value is recorded as -73%.
Turning to `O=C(CNC(=O)OCc1ccccc1)Nc1ccc(F)cc1`, the “hERG current change (%, negative = inhibition) at 10uM” value stood at 6.08%.
The figure for `Oc1ccc(-c2nc3ncccn3c2Nc2ccc3c(c2)OCO3)cc1` is 0.66%; for `COc1ccc(C2CC(c3cccs3)=NN2c2ccccc2)cc1` (centres unmarked) it is 7.41%.
Under `O=C(CNC(=S)N(Cc1ccccc1)Cc1cccnc1)NCc1ccccc1` stands -0.186%; under `CCCOc1ccc(C2C(C(=O)OC)=CN(CCOC)C=C2C(=O)OC)cc1`, -29.5%; under `O=C1CSC(c2cn(-c3ccccc3)nc2-c2cc3ccccc3oc2=O)N1Cc1ccco1` (centres unmarked), -16.6%.
Under `CSc1ccc(Cl)c(C(=O)OCC(=O)NCC(C)C)c1` stands -21%; under `CC1=C/C(=N\OS(=O)(=O)c2ccccc2)C(C(C)C)=CC1=O`, 22%.
For `Cc1ccc(NC(=S)N2CCC(N(C)CC3CCCO3)CC2)cc1` (centres unmarked), the “hERG current change (%, negative = inhibition) at 10uM” value is -4.57%.
Under `COc1cccc(S(=O)(=O)NCc2ccc(C(=O)N3CCN(Cc4ccccc4)CC3)cc2)c1` stands -1.68%; under `CCN(CC)S(=O)(=O)c1ccc(OC)c(NC(=O)CSc2ccccc2)c1`, -72.9%; under `CC1CCN(C(=O)c2[nH]cnc2C(=O)Nc2cccc(Cl)c2)CC1`, 13.8%.
Under `Cc1cccc(OCCNC(=O)CSc2ccc(C(F)(F)F)cc2[N+](=O)[O-])c1` stands 12.2%; under `O=S(=O)(NN1CCOCC1)c1ccc(Br)s1`, 5.48%.
